Source: PubChem BioAssay AID624417 (National Center for Advancing Translational Sciences (NCATS), 2012)
Screen size: about 410,000 compounds; about 6,400 (1.6%) were called active. Inconclusive results, whose numbers are uncertain, are shown with a selection of clear calls. The call rests on the fitted dose curve; in most records, active means well fitted inhibition curve with a large enough effect; inconclusive means small, poorly fitted or top-dose-only effect; inactive means no such curve, though single readings can be large or run the other way. No potency is given beside an inconclusive call; the fits are too rough.
Further: nearly all actives have a fitted effect of over 55% in size.
On the % scale 0 is the no-effect control and ±100 the full control effect; potency means the concentration at half of the fitted maximal effect; tags describe the fitted curve by direction and shape.

These compounds were tested against Glucagon-like peptide 1 receptor (Homo sapiens) (UniProt P43220) (assay: qHTS of GLP-1 Receptor Inverse Agonists (Inhibition Mode)). Conditions: HEK293 GLP-1R CRE-luciferase, luminescence, 24 h, GLP-1R form is constitutively active; activity change, negative = inhibition: at 38.3 µM (top of the series) unless noted.
UniProt P43220, sequence (P43220 whole entry, looked up): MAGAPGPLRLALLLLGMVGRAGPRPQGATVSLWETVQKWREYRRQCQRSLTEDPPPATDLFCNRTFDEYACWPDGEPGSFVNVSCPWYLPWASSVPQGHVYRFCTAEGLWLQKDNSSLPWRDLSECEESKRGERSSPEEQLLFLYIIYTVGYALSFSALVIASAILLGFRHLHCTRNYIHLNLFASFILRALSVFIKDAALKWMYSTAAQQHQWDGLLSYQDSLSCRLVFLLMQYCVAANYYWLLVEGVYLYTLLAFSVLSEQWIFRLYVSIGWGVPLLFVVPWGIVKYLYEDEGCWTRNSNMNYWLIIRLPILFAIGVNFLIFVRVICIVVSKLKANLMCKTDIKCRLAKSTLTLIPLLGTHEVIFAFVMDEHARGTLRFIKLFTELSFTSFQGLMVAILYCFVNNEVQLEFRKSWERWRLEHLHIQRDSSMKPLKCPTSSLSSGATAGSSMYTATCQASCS
Method in brief: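 Luminescence readout: a drop in cAMP-driven luciferase signal flags inverse agonism at a constitutively active GLP-1R stably expressed in HEK293. Compound exposure lasted 24 hr at 37 deg C, 5% CO2.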
Cc1ccc(OCCCCN2CCc3ccccc3C2)c(C)c1 was tested, and the Potency was inconclusive [inhibitor, partial curve, poor fit].
With O=C(CCNC(=O)Cn1ccc2ccccc2c1=O)NCCCN1CCN(c2ccc(F)cc2)CC1 the Potency was “inactive”.
For CCOC(=O)c1c(C)[nH]c(C(=O)NNC(=O)c2ccc(C(C)(C)C)cc2)c1C, the Potency was inconclusive [inhibitor, partial curve, poor fit].
O=C(CSCc1ccccc1)N1CCN(S(=O)(=O)c2ccc(F)cc2)CC1 was tested, and the Potency was inconclusive [inhibitor, single point].
For COCCNc1oc(-c2ccc(Cl)cc2)nc1C#N, the Potency was “inactive”.
With O=C(NCCn1ccc2ccccc21)C1CCCCC1 the Potency was inconclusive [inhibitor, single point].
With CCOc1ccccc1-n1nnnc1SCc1nc2ccccc2s1 the Potency was inconclusive [inhibitor, single point].
For C#Cc1ccccc1OCCCN1CCC(C(O)(c2ccccc2)c2ccccc2)CC1, the Potency was inconclusive [inhibitor, single point].
In the case of COc1cc(C(=O)OCC(=O)NC23CC4CC(CC(C4)C2)C3)cc(OC)c1OC, the Potency is reported as inconclusive [inhibitor, partial curve, poor fit].
For OCC1(CCOc2ccccc2)CCN(Cc2ccccc2OC(F)F)CC1, the Potency was inconclusive [inhibitor, partial curve, poor fit].
For CCCNC(=O)COC(=O)c1ccccc1C(=O)c1ccc(Cl)c([N+](=O)[O-])c1, the Potency was inconclusive [inhibitor, single point].
In the case of COc1cccc(C(=O)N2CCN(C3CCC(c4ccccc4)CC3)CC2)c1OC (configuration not stated), the Potency is reported as inconclusive [inhibitor, partial curve, poor fit].
In the case of CCOC(=O)c1sc(=S)n(-c2ccccc2)c1C, the Potency is reported as “inactive”.
Cc1[nH]c2ccc(F)cc2c1CCN(Cc1cccnc1)C(=S)Nc1cccc(F)c1 was tested, and the Potency was active: 10 µM.
CCc1ccccc1NC(=O)Cn1c(=O)n(-c2ccc(C)cc2)c(=O)c2c1c1cc(C)ccc1n2C was tested, and the Potency was “inactive”.
For CC(C)CN1CCC(C(=O)NC(c2ccc(F)cc2)c2ccc3ccccc3n2)CC1 (configuration not stated), the Potency was inconclusive [inhibitor, single point].
For CCS(=O)(=O)c1ncc(N(Cc2ccccc2)Cc2ccco2)c(C(=O)Nc2ccc(C)c(C)c2)n1, the Potency was inconclusive [inhibitor, partial curve].
With CCC(Cc1ccccc1)NC(=O)CCc1ccccc1 (configuration not stated) the Potency was inconclusive [inhibitor, single point].
With CCCN1CCN(c2ncnc3c2nnn3Cc2ccccc2)CC1 the Potency was inconclusive [inhibitor, full curve, poor fit].
CC(C)C(c1nnnn1Cc1ccco1)N1CCN(c2nc3ccccc3s2)CC1 (configuration not stated) was tested, and the Potency was inconclusive [inhibitor, partial curve, poor fit].
For CCCN(Cc1ccccc1)C(=S)Nc1ccc(C(C)=O)cc1, the Potency was inconclusive [inhibitor, single point].
With O=C(NC1CCCCCC1)c1ccc(Br)o1 the Potency was inconclusive [inhibitor, single point].
Cc1cccc(Oc2c(C=O)c3ccccc3n2C)c1 was tested, and the Potency was inconclusive [inhibitor, partial curve, poor fit].
COc1cc(/C=N/Nc2ccc(F)cc2F)cc(OC)c1O was tested, and the Potency was inconclusive [inhibitor, full curve, poor fit].
Cc1ccccc1NC(=O)N1CCc2c(sc3c2CCCC3)C1c1ccccc1 (configuration not stated) was tested, and the Potency was active: 10 µM.
With CC(C)(C)c1cc(CP(=O)(c2ccccc2)c2ccccc2)cc(C(C)(C)C)c1O the Potency was inconclusive [inhibitor, partial curve, poor fit].
With Nc1c(Cl)cc(C2=NCCn3nc4cc(C(F)(F)F)ccc4c32)cc1Cl the Potency was inconclusive [inhibitor, single point].
CC(C)c1ccc(N(C(=O)c2ccc3c(c2)OCO3)C2C=CS(=O)(=O)C2)cc1 (configuration not stated) was tested, and the Potency was inconclusive [inhibitor, single point].
With O=C1OCC2=C1C(c1ccc(Cl)cc1)c1cc3c(cc1O2)OCO3 (configuration not stated) the Potency was inconclusive [inhibitor, partial curve].
For COC(=O)C1=C(C)Nc2nc(-c3ccccc3)nn2C1c1ccc(C)o1 (configuration not stated), the Potency was inconclusive [inhibitor, single point].
CCOC(=O)c1cnc2c(-c3ccc(F)cc3)cnn2c1C(F)(F)F was tested, and the Potency was inconclusive [inhibitor, single point].
In the case of COc1ccc2[nH]c(=O)c(CNC3CCCCC3)cc2c1, the Potency is reported as “inactive”.
Cc1ccc(OCCN2CCC2(C)C(=O)Nc2ccc3c(c2)OCO3)cc1 (configuration not stated) was tested, and the Potency was inconclusive [inhibitor, single point].
COc1ccc(N(CC(=O)NCc2ccccc2Cl)S(=O)(=O)c2c(C)nn(C)c2C)cc1 was tested, and the Potency was “inactive”.
CCn1c2ccccc2c2cc(NC(=O)N3CCOCC3)ccc21 was tested, and the Potency was inconclusive [inhibitor, single point].
In the case of CN(C)CCCN(C(=O)c1ccc(Br)s1)c1nc2ccc(F)cc2s1, the Potency is reported as “inactive”.
O=C(c1ccccc1)c1ccccc1C(=O)N1CCOCC1 was tested, and the Potency was inconclusive [inhibitor, single point].
For COc1ccccc1Oc1ccc(N/C=C/C(=O)c2ccc(C)o2)cc1, the Potency was inconclusive [inhibitor, single point].
With Cc1c(Cc2ccccc2)sc(NC(=O)/C=C/c2cccc3ccccc23)c1C(N)=O the Potency was inconclusive [inhibitor, full curve].
For CC(C)CCn1c(COc2ccccc2)nn(CCC#N)c1=S, the Potency was inconclusive [inhibitor, single point].
Cc1c(Cl)cccc1NC(CC(=O)c1ccccc1)C(=O)OCC(=O)c1cccs1 (configuration not stated) was tested, and the Potency was “inactive”.
For CCCSCCCNC(=O)C1CCCN(c2nn3cc(-c4ccc(OC)cc4)nc3s2)C1 (configuration not stated), the Potency was inconclusive [inhibitor, single point].
In the case of Cc1ccc(-c2nc3cnccn3c2Nc2c(C)cccc2C)o1, the Potency is reported as inconclusive [inhibitor, full curve].
In the case of Cc1cc(-c2nc3cc(F)ccc3s2)ccc1N, the Potency is reported as inconclusive [inhibitor, partial curve, poor fit].
With CCc1cccc(C)c1NC(=O)c1cc(S(=O)(=O)NCc2ccccc2Cl)ccc1F the Potency was inconclusive [inhibitor, single point].
Cc1ccc(OCC(=O)O/N=C(\N)Cc2cccs2)cc1C was tested, and the Potency was inconclusive [inhibitor, single point].
For O=C(CCNS(=O)(=O)c1ccc(Br)s1)NC1CCCC1, the Potency was inconclusive [inhibitor, partial curve, poor fit].
With Cc1csc(NC(=O)c2ccc3ccccc3n2)n1 the activity change, negative = inhibition was inconclusive: -55.6% [inhibitor].
With Cc1nn2c(=O)cc(CSc3nc4ccccc4[nH]3)nc2s1 the Potency was “inactive”.
For CCCn1c2ccccc2c2cnn(CC(=O)N(C)c3ccccc3CC)c(=O)c21, the Potency was inconclusive [inhibitor, single point].
COc1cccc(Cn2nnc(C(=O)Nc3cc(Cl)ccc3OC)c2N)c1 was tested, and the Potency was inconclusive [inhibitor, full curve, poor fit].
For Fc1ccc(C(NCCc2ccc(Cl)cc2)c2nnc(-c3ccccc3)o2)c(Cl)c1 (configuration not stated), the Potency was active: 10 µM.
For COc1ccccc1CNC(=O)CCn1c(=O)c2ccccc2n(CC(=O)Nc2ccc(C)cc2Cl)c1=O, the Potency was “inactive”.
With Cc1cc(C(=O)COC(=O)c2ccccc2Br)c(C)n1CC1CCCO1 (configuration not stated) the Potency was inconclusive [inhibitor, full curve, poor fit].
In the case of CCOc1ccc(NCc2nc3ccccc3n2CCOc2ccccc2)cc1, the Potency is reported as inconclusive [inhibitor, single point].
CCc1ccc(-c2cc(C)no2)cc1S(=O)(=O)N1CC(=O)Nc2ccccc21 was tested, and the Potency was inconclusive [inhibitor, single point].
With Cc1nn(Cc2c(Cl)cccc2Cl)c(C)c1NC(=O)CCCn1nc([N+](=O)[O-])c(Cl)c1C the Potency was active: 2.51 µM.
O=C(CNc1cccc([N+](=O)[O-])c1)N/N=C/c1ccc(F)cc1 was tested, and the Potency was inconclusive [inhibitor, single point].
With Cn1c(=O)cc(OCCCC(=O)NCCN2CCN(c3ccccc3F)CC2)c2ccccc21 the Potency was “inactive”.
In the case of CCOc1ccc(Cl)cc1S(=O)(=O)N1CCN(c2ccc(F)cc2)CC1, the Potency is reported as inconclusive [inhibitor, single point].
In the case of COC(=O)Nc1sc2nc(C)cc(C)c2c1-n1cccc1, the Potency is reported as inconclusive [inhibitor, single point].
In the case of O=C(Nc1ccc(F)cc1)c1ccccc1Oc1ccc(C(F)(F)F)cc1[N+](=O)[O-], the Potency is reported as active: 10 µM.
In the case of O=C(COC(=O)c1ccccc1-n1cnnn1)c1ccccc1, the Potency is reported as “inactive”.
In the case of COCn1c(-c2ccc(OC)c(OC)c2)nc2ccccc21, the Potency is reported as “inactive”.
In the case of O/N=C/c1cc(Br)ccc1OCc1cccc(F)c1, the Potency is reported as inconclusive [inhibitor, single point].
Fc1ccc(NC(=S)N2CCN(c3cccc(C(F)(F)F)c3)CC2)cc1 was tested, and the Potency was inconclusive [inhibitor, partial curve, poor fit].
In the case of O=C(CCC1N=C2c3ccccc3N=C(SCc3ccc(Cl)cc3)N2C1=O)NCCc1ccccc1 (configuration not stated), the Potency is reported as inconclusive [inhibitor, single point].
